Several values for one entry are separate records, joined by “and”; a condition that tells them apart may be missing. Equal values may be shown once. Where a name gives a salt, the structure may show the parent alone. ± gives the standard deviation of the averaged measurements. Screen size: about 1,000 compounds; about 15 (2%) showed an effect of 50% or more. The list shows a part of the results.
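Further: confluent HFF monolayers, run in parallel with the Toxoplasma growth screen as a host toxicity counterscreen.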

The test system of this assay is HFF. The assay can be described thus: uninfected host cell viability relative to vehicle control; higher = less host cell toxicity. The following applies: 5 µM; 72 h; oxygen 21 %.
Consider `O=C(O)Cc1nn(Cc2ccc(Br)cc2F)c(=O)c2ccccc12` [Statil], for which the “uninfected host cell viability” value came out at 74.548 ± 0.058%. In the case of `COc1cccc(CCc2ccccc2OCC[C@@H]2C[C@@H](O)CN2C)c1`, the “uninfected host cell viability” value was determined as 87.1 ± 6%. Take `O=C(O)C1CCCN(CCC=C(c2ccccc2)c2ccccc2)C1` (configuration not stated): the “uninfected host cell viability” value was 90.3 ± 2.8%. `O=C(O)COCCN1CCN(C(c2ccccc2)c2ccc(Cl)cc2)CC1` (configuration not stated) [Cetirizine dihydrochloride]: the “uninfected host cell viability” value is 85.4 ± 2%. Turning to `NC1CCN(c2cccc(Cl)n2)CC1`, the “uninfected host cell viability” value was determined as 84.88 ± 0.2%. `CC(NC(=O)c1ccccc1/N=C/c1c(O)ccc2ccccc12)c1ccccc1` (configuration not stated) [Sirtinol]: the “uninfected host cell viability” value stood at 89.09 ± 0.58%. Take `CC(C)NCC(O)COc1ccc(CCOCC2CC2)cc1` (configuration not stated) [Betaxolol hydrochloride]: the “uninfected host cell viability” value is 85.7 ± 9.1%. On to `COc1cc2ncn(-c3cc(OCc4ccccc4C(F)(F)F)c(C(N)=O)s3)c2cc1OC`, for which the “uninfected host cell viability” value came out at 83.8 ± 1.1%. For `OC[C@H]1O[C@@H](n2cnc3c(NC4CCCC4)ncnc32)[C@H](O)[C@@H]1O` [N6-Cyclopentyladenosine] the value was 98.17 ± 0.2%. `CC1(C)CCC(C)(C)c2cc(C3(c4ccc(C(=O)O)cc4)OCCO3)ccc21`: the “uninfected host cell viability” value is 93.1 ± 2.3%. Turning to `N#C/C(=C\c1ccc(O)c(O)c1)C(=O)OCCc1cccs1`, the “uninfected host cell viability” value is 77.5 ± 0.84%.

`C1COC(NC(C2CC2)C2CC2)=N1` [Rilmenidine hemifumarate]: the “uninfected host cell viability” value was 89.2 ± 3%. For `N=C(N)c1ccc(N2CCN(C3CCN(CC(=O)O)CC3)CC2)cc1` the value was 89.7 ± 3.2%; for `CCc1c2c(nc3ccc(O)cc13)-c1cc3c(c(=O)n1C2)COC(=O)[C@]3(O)CC`, 77.3 ± 8.2%. The value for `Cc1cc2nc3c(=O)[nH]c(=O)nc-3n(C)c2cc1C=O` was 94 ± 2%. On to `Cc1nn(-c2ccccc2)c(C)c1C=NN1CCN(Cc2ccccc2)CC1`, for which the “uninfected host cell viability” value stood at 98.9 ± 2.2%.

For the compound `CSc1cc2c(cc1C(F)(F)F)N(C(=O)Nc1cccnc1)CC2`, the “uninfected host cell viability” value came out at 82.837 ± 0.016%. As for `O=C(O)C(=O)O.[NH-][C@@H]1CCCC[C@H]1[NH-].[Pt+2]` [Oxaliplatin], the “uninfected host cell viability” value turned out to be 86.7 ± 0.87%.

Take `N[C@@H](CSC(c1ccccc1)(c1ccccc1)c1ccccc1)C(=O)O` [S-Trityl-L-cysteine]: the “uninfected host cell viability” value came out at 91.7 ± 1.7%. In the case of `c1cnc(N2CCN(Cc3ccc4c(c3)OCO4)CC2)nc1` [Piribedil], the “uninfected host cell viability” value amounted to 96.65 ± 0.57%. With `C[C@](N)(Cc1ccc(O)c(O)c1)C(=O)O` [L-(-)- α-Methyldopa], the “uninfected host cell viability” value stood at 79.3 ± 1.2%. With `COC(=O)/C=C/c1cccc(N(Cc2ccc(-c3ccc(N(C)C)cc3)cc2)C(=O)C2CCCCC2)c1` [Fexaramine], the “uninfected host cell viability” value was determined as 96 ± 2.3%. For `CC(C)C[C@@H](C(=O)N[C@H](C(=O)OC1CCCC1)c1ccccc1)[C@H](O)C(=O)NO` the value was 97.9 ± 3.7%; for `CN1CCC[C@@H]1Cc1c[nH]c2ccc(CCS(=O)(=O)c3ccccc3)cc12` [Eletriptan hydrobromide], 85.29 ± 0.68%. Take `CN(C)CCC=C1c2ccccc2COc2ccccc21` [Doxepin hydrochloride]: the “uninfected host cell viability” value came to 83.4 ± 3.1%. Turning to `C[S+]([O-])c1ccc(-c2nc(-c3ccc(F)cc3)c(-c3ccncc3)[nH]2)cc1` (configuration not stated), the “uninfected host cell viability” value was 89.4% and 88.6%. For `CC1=NN(c2ccccc2)C(=O)C1` the value was 86.7 ± 0.42%.

Consider `CN(C)C/C=C(/c1ccc(Br)cc1)c1cccnc1` [Zimelidine dihydrochloride], for which the “uninfected host cell viability” value amounted to 86 ± 6.3%. The value for `CC(=O)N[C@@H](Cc1c[nH]c2ccccc12)C(=O)OCc1cc(C(F)(F)F)cc(C(F)(F)F)c1` was 100 ± 2.4%.

On to `Cc1ccc2c(c1)c1c3n2CCNC3CCC1` (configuration not stated) [Pirlindole mesylate], for which the “uninfected host cell viability” value was 88 ± 6.3%. Take `CCN(CC)CCOC(=O)c1cc(Cl)c(N)cc1OC` [SDZ 205-557 hydrochloride]: the “uninfected host cell viability” value worked out at 86.6 ± 7.2%. For the compound `Oc1ccc(/C=C/c2cc(O)cc(O)c2)cc1` [Resveratrol], the “uninfected host cell viability” value worked out at 91.7 ± 3.2%. With `CCOC(=O)C1=C(COCCN)NC(C)=C(C(=O)OC)C1c1ccccc1Cl` (configuration not stated) [Amlodipine besylate], the “uninfected host cell viability” value stood at 88.5 ± 1.3%. For `COc1ccc(/C=C/C(=O)Nc2ccccc2C(=O)O)cc1OC` [Tranilast], the “uninfected host cell viability” value came to 85 ± 1%. Consider `NC(=O)c1ccc2[nH]ccc2c1`, for which the “uninfected host cell viability” value worked out at 88.1 ± 1%. Take `CCOc1ccc(Nc2nc(-c3c(C)nc4ccccn34)cs2)cc1`: the “uninfected host cell viability” value was 73.8 ± 2.5%. For `Cc1cc(I)ccc1Nc1c(C(=O)NOCC2CC2)cc(F)c(F)c1F` the value was 83.5 ± 0.85%; for `CC[C@]1(O)C[C@H]2CN(CCc3c([nH]c4ccccc34)[C@@](C(=O)OC)(c3cc4c(cc3OC)N(C=O)[C@H]3[C@@](O)(C(=O)OC)[C@H](OC(C)=O)[C@]5(CC)C=CCN6CC[C@]43[C@@H]65)C2)C1` [Vincristine sulfate], 68 ± 2.9%; for `Cc1cccc(C)c1OCC(C)N` (configuration not stated) [Mexiletine hydrochloride], 84.1 ± 3.1%. For `COc1ccccc1N1CCN(CCCCN2C(=O)c3ccccc3C2=O)CC1` [NAN-190 hydrobromide], the “uninfected host cell viability” value was 86.1 ± 2.8%. On to `CN1[C@@H]2CC[C@H]1C[C@@H](OC(=O)c1c[nH]c3ccccc13)C2` [Tropisetron hydrochloride], for which the “uninfected host cell viability” value was determined as 95.77 ± 0.92%. As to `CC(C(=O)O)c1ccc(-c2ccccc2)c(F)c1` (configuration not stated) [Flurbiprofen], the “uninfected host cell viability” value amounted to 88.4 ± 2%. For `COc1cc(N)c(Cl)cc1C(=O)OCCCN1CCCCC1`, the “uninfected host cell viability” value came out at 89.4 ± 4.1%.

In the case of `COc1ccc(CCN(C)CCCN2CCc3cc(OC)c(OC)cc3CC2=O)cc1OC` [Zatebradine hydrochloride], the “uninfected host cell viability” value was found to be 89.89 ± 0.32%. Turning to `NC(N)=NC(N)=Nc1cccc(Cl)c1` [m-Chlorophenylbiguanide hydrochloride], the “uninfected host cell viability” value is 89.3 ± 1.4%.

For the compound `C=CCc1cccc(/C=N/NC(=O)CN2CCN(Cc3ccccc3)CC2)c1O`, the “uninfected host cell viability” value was determined as 79.7 ± 1.4%. `CN(C)C(=O)C(CCN1CCC(O)(c2ccc(Cl)cc2)CC1)(c1ccccc1)c1ccccc1` [Loperamide hydrochloride]: the “uninfected host cell viability” value was 83.3 ± 3%. The value for `COc1ccccc1N1CCN(CCN2C(=O)c3ccccc3C(C)(C)C2=O)CC1` [ARC 239 dihydrochloride] was 93.6 ± 7.7%. The value for `CC[N+](CC)(CC)CCOc1ccc(/C=C/c2ccccc2)cc1` was 75.6 ± 0.83%; that for `C/C=C1\C(=O)C[C@H]2[C@@H]3CCC4=CC(=O)CC[C@]4(C)[C@H]3CC[C@]12C` [Guggulsterone] was 121 ± 8.2%; that for `COc1ccc2c(c1OC)C(=O)O[C@@H]2[C@H]1c2c(cc3c(c2OC)OCO3)CCN1C` [Noscapine hydrochloride] was 89.8 ± 5.4%. In the case of `Nc1nc2ccc(OC(F)(F)F)cc2s1` [Riluzole hydrochloride], the “uninfected host cell viability” value was 88.3 ± 3.3%. For `COc1ccc2c(c1)c(CC(=O)O)c(C)n2C(=O)c1ccc(Cl)cc1` [Indomethacin] the value was 86.8 ± 3.3%; for `OC(CCCN1CCN(c2ncc(F)cn2)CC1)c1ccc(F)cc1` (configuration not stated), 110 ± 17%.

As for `COc1cccc(-c2cc(=O)c3ccccc3o2)c1N`, the “uninfected host cell viability” value was determined as 87.9 ± 1.2%. For `COC(=O)/C=C/c1cc(O)ccc1O` [Methyl 2,5-dihydroxycinnamate] the value was 84.022 ± 0.057%. Consider `OC(CNCC(O)C1CCc2cc(F)ccc2O1)C1CCc2cc(F)ccc2O1` (configuration not stated) [Nebivolol hydrochloride], for which the “uninfected host cell viability” value came to 83.9 ± 2.2%. The value for `CC(C)NCC(O)COc1ccccc1-n1cccc1` (configuration not stated) [Isamoltane hemifumarate] was 86.4 ± 2.9%.

As to `CCC(C)N(C)C(=O)c1cc2ccccc2c(-c2ccccc2Cl)n1` (configuration not stated), the “uninfected host cell viability” value was 108 ± 2%. Turning to `COc1cc2c(cc1C(F)(F)F)N(C(=O)Nc1cc(F)cc(-c3cccnc3)c1)CC2`, the “uninfected host cell viability” value was found to be 83.6 ± 2.3%. For `Nc1nc2ccc(Cl)cc2c2nc(-c3ccco3)nn12` the value was 92.8 ± 3.7%; for `CC(C)NC[C@@H](O)COc1cccc2ccccc12` [(R)-(+)-Propranolol hydrochloride], 85.3 ± 1%. Take `CCC(=O)OCN1C(=O)C=CC1=O`: the “uninfected host cell viability” value was 90.82 ± 0.35%. The value for `Cn1ccc2cc(NC(=O)Nc3cccnc3)ccc21` was 84.3 ± 2%. In the case of `CC[C@H](C)C(=O)O[C@H]1CCC=C2C=C[C@H](C)[C@H](CC[C@@H]3C[C@@H](O)CC(=O)O3)[C@H]21` [Mevastatin], the “uninfected host cell viability” value amounted to 81.7 ± 4.2%. As for `O=C(/C=C/c1ccc(O)c(O)c1)OCCc1ccccc1` [Caffeic acid phenethyl ester], the “uninfected host cell viability” value was 94.7 ± 4%. As to `C[N+](C)(C)CC[N+]1(C)Cc2c(Cl)c(Cl)c(Cl)c(Cl)c2C1` [Chlorisondamine diiodide], the “uninfected host cell viability” value worked out at 83.5 ± 6.6%. The value for `CCN(CC)CC1CCN(c2ncc3ncnc(Nc4ccc(F)c(Cl)c4)c3n2)CC1` [BIBU 1361 dihydrochloride] was 88.9 ± 3.7%; that for `Cc1ccc([N+](=O)[O-])cc1S(=O)(=O)N(C)C` was 98 ± 6.1%; that for `CC(/C=C/c1cccc(Oc2ccc(F)cc2)c1)N(O)C(N)=O` (configuration not stated) was 82.8 ± 3.7%. For `COc1ccc(C2CNC(=O)C2)cc1OC1CCCC1` (configuration not stated) [Rolipram] the value was 86.1 ± 4.7%; for `Nc1c(S(=O)(=O)O)cc(Nc2cccc3ccccc23)c2c1C(=O)c1ccccc1C2=O`, 80.6 ± 2.5%. On to `CCCCN1CCCC1CNC(=O)c1cc(C#N)c2ccccc2c1OC` (configuration not stated) [Nafadotride], for which the “uninfected host cell viability” value was 84.8 ± 2.4%. Take `CN(Cc1ccccc1)C(=O)[C@H](Cc1ccc2ccccc2c1)NC(=O)[C@@H]1CCCN1C(=O)Nc1ccccc1[N+](=O)[O-]`: the “uninfected host cell viability” value is 87.6 ± 1.8%.

Consider `COc1cc([C@@H]2c3cc4c(cc3[C@@H](O[C@@H]3O[C@@H]5CO[C@@H](C)O[C@H]5[C@H](O)[C@H]3O)[C@H]3COC(=O)[C@H]23)OCO4)cc(OC)c1O` [Etoposide], for which the “uninfected host cell viability” value was found to be 91.8 ± 1.6%.

On to `O=[N+]([O-])c1cccc2cn[nH]c12` [7-Nitroindazole], for which the “uninfected host cell viability” value stood at 84.8 ± 1.5%. Consider `CCCc1c(OCC(O)COc2ccc3c(=O)cc(C(=O)O)oc3c2CCC)ccc(C(C)=O)c1O` (configuration not stated), for which the “uninfected host cell viability” value came out at 93.1 ± 1.4%. The value for `CC(C)NCC(O)c1ccc2ccccc2c1` (configuration not stated) [Pronethalol hydrochloride] was 85.9 ± 2.6%; that for `CNc1cc(OC)c(C(=O)NC2CCN(Cc3ccccc3)C2C)cc1Cl` (configuration not stated) [Nemonapride] was 86.9 ± 6.9%.

In the case of `COC(=O)C1=C(C)NC(C)=C(C(=O)OCCSc2ccccc2)C1C` (configuration not stated), the “uninfected host cell viability” value worked out at 88.24 ± 0.38%.

In the case of `Cc1cccc(C#Cc2ccccc2)n1` [MPEP hydrochloride], the “uninfected host cell viability” value was 97.6 ± 2.2%. For `c1ccc(C(NCc2cccnc2)(c2ccccc2)c2ccccc2)cc1`, the “uninfected host cell viability” value worked out at 116.4 ± 0.73%.

Consider `N[C@H](C(=O)O)c1cc(O)cc(O)c1`, for which the “uninfected host cell viability” value came out at 91.2 ± 6.2%.

In the case of `Nc1nc(NCCc2ccc(O)cc2)nc2nc(-c3ccco3)nn12`, the “uninfected host cell viability” value stood at 92.5 ± 2.4%. In the case of `CCn1ccnc1CC1COc2ccccc2O1` (configuration not stated) [Imiloxan hydrochloride], the “uninfected host cell viability” value came out at 85.7 ± 2.1%. `Cc1cc(C)c(/C=C2\C(=O)Nc3ccccc32)[nH]1`: the “uninfected host cell viability” value worked out at 77 ± 2%. `O=C1CC2(CCCC2)CC(=O)N1CCCCN1CCN(c2ncccn2)CC1` [Buspirone hydrochloride]: the “uninfected host cell viability” value worked out at 90.2 ± 1.8%.

The record behind these values is the supplement of paper PMC4894684.
